Reference: a protein production outcome set (Wang et al. 2014)

Test: label from the status in PepcDB records

Q: With “METSSPRPPRPSSNPGLSLDARLGVDTRLWAKVLFTALYALIWALGAAGNALSVHVVLKARAGRAGRLRHHVLSLALAGLLLLLVGVPVELYSFVWFHYPWVFGDLGCRGYYFVHELCAYATVLSVAGLSAERCLAVCQPLRARSLLTPRRTRWLVALSWAASLGLALPMAVIMGQKHELETADGEPEPASRVCTVLVSRTALQVFIQVNVLVSFVLPLALTAFLNGVTVSHLLALCSQVPSTSTPGSSTPSRLELLSEEGLLSFIVWKKTFIQGGQVSLVRHKDVRRIRSLQRSVQVLRAIVVMYVICWLPYHARRLMYCYVPDDAWTDPLYNFYHYFYMVTNTLFYVSSAVTPLLYNAVSSSFRKLFLEAVSSLCGEHHPMKRLPPKPQSPTLMDTASGFGDPPETRT” as the sequence, how does the protein production read?
A: failed

Q: For “MKLIVGMTGATGAXLGVALLQALREMPNVETHLVMSKWAKTTIELETPYSARDVAALADFSHNPADQAATISSGSFRTDGMIVIPCSMKTLAGIRAGYADGLVGRAADVVLKEGRKLVLVPREMPLSTIHLENMLALSRMGVAMVPPMPAFYNHPETVDDIVHHVVARVLDQFGLEHPYARRWQGLPQARNFSQENE”, which protein production is on record?
A: not failed

Q: Which protein production does the source give for “MVFAHRMDNSKPHLIIPTLLVPLQNRSCTETATPLPSQYLMELSEEHSWMSNQTDLHYVLKPGEVATASIFFGILWLFSIFGNSLVCLVIHRSRRTQSTTNYFVVSMACADLLISVASTPFVLLQFTTGRWTLGSATCKVVRYFQYLTPGVQIYVLLSICIDRFYTIVYPLSFKVSREKAKKMIAASWIFDAGFVTPVLFFYGSNWDSHCNYFLPSSWEGTAYTVIHFLVGFVIPSVLIILFYQKVIKYIWRIGTDGRTVRRTMNIVPRTKVKTIKMFLILNLLFLLSWLPFHVAQLWHPHEQDYKKSSLVFTAITWISFSSSASKPTLYSIYNANFRRGMKETFCMSSMKCYRSNAYTITTSSRMAKKNYVGISEIPSMAKTITKDSIYDSFDREAKEKKLAWPINSNPPNTFV” here?
A: failed
